Reference: PubChem BioAssay AID2147 (National Center for Advancing Translational Sciences (NCATS), 2009)
Out of some 230,000 compounds screened, about 3,600 (1.6%) were called active. Inconclusive means that the source gave no clear call. Such entries were picked first, then a sample of the others. Calls come from the whole dose curve; as a rule, active = well fitted inhibition curve with a large enough effect (not every such curve was filed as active); inconclusive = small, poorly fitted or top-dose-only effect, or another doubt; inactive = no such curve, though single readings can be large or run the other way. Potencies beside an inconclusive call are fits to weak or partial responses and may not hold up.

molecular target: Lysine-specific demethylase 4E (Homo sapiens) (UniProt B2RXH2); assay: qHTS Assay for Inhibitors of Human Jumonji Domain Containing 2E (JMJD2E); details: JMJD2E catalytic domain, FDH-coupled NADH fluorescence (FDH is formaldehyde dehydrogenase); series mostly up to 57.1 µM
Note: nearly all actives have a fitted effect of over 50% in size.
Potency is the fitted concentration of half-maximal effect; tags give direction and shape of the fitted curve.

Chain of UniProt B2RXH2 (B2RXH2 whole entry, looked up, the tested form may be a part): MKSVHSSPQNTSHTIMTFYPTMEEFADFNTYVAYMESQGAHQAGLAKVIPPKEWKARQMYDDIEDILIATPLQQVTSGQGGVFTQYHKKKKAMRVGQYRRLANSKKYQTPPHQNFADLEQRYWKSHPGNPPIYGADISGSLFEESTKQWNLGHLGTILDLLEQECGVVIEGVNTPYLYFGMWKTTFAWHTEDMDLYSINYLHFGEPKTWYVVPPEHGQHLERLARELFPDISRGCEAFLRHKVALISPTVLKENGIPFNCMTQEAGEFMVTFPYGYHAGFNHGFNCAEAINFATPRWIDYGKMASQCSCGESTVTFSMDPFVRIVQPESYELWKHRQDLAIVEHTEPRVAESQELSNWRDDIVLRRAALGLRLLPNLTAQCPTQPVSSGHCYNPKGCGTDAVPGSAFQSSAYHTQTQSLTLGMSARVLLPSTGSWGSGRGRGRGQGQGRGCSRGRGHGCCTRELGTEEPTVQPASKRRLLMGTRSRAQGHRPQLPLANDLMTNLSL

Structure (SMILES) | Potency
O=C1C(NS(=O)(=O)c2cccs2)=C(N2CCOCC2)C(=O)c2ccccc21 | inactive
Cc1ccc2cc(-c3noc(C4CCCCC4)n3)c(=O)[nH]c2c1 | inconclusive: 3.16 µM [inhibitor, full curve]
COc1ccc(OC)c(C2=NOC(C(=O)Nc3cccc(C(C)=O)c3)C2)c1 (stereo unspecified) | inconclusive: 39.8 µM [inhibitor, single point]
CCCc1nc(N2CCCC2)c(C#N)c2c1CCCC2 | inconclusive: 28.2 µM [inhibitor, partial curve]
CC(=O)N1N=C(c2ccccc2OC(=O)/C=C/c2ccccc2)CC1c1ccccc1 (stereo unspecified) | inactive
COc1ccc(/C=N/NC(=O)c2ccccc2O)cc1CSc1ccccn1 | inconclusive: 35.5 µM [inhibitor, partial curve]
N#C/C=C1/NC(=O)c2ccccc2S1 | inactive
CCCCNc1nc(N)nc(-c2cc(Cl)ccc2O)n1 | inconclusive: 31.6 µM [inhibitor, partial curve]
Cc1cc(Br)cn2cc(C(=O)O)nc12 | inactive
CCOC(=O)c1cnc(-n2nc(C)cc2C)nc1NC | inconclusive: 28.2 µM [inhibitor, partial curve]
COc1cc(C2Nc3ccccc3C(=O)N2NS(C)(=O)=O)ccc1O (stereo unspecified) | inconclusive: 28.2 µM [inhibitor, partial curve]
Cc1cc(C)n2nc(NCc3cccc(Br)c3)nc2n1 | inconclusive: 28.2 µM [inhibitor, partial curve]
Cc1ccc(-n2cc(CN(C)Cc3nccn3C)c(-c3ccc(F)cc3)n2)cc1 | inconclusive: 2 µM [inhibitor, full curve, poor fit]
C=CCN(CC=C)S(=O)(=O)c1ccc(C(=O)Nc2nc3c(s2)CCc2ccccc2-3)cc1 | inconclusive: 31.6 µM [inhibitor, partial curve]
Cc1onc(-c2c(F)cccc2Cl)c1C(=O)Nc1cccc2nsnc12 | inconclusive: 28.2 µM [inhibitor, partial curve]
Cc1sc2ncnc(-n3cnc4ccccc43)c2c1C | inconclusive: 28.2 µM [inhibitor, single point]
Cc1ccc(S(=O)(=O)Nc2cc(NC(=O)CN3CCOCC3)ccc2Cl)cc1 | inactive
Fc1cccc(NC(=S)NCCc2ccccc2)c1 | inactive
Cc1cccc(/C=N\NC(=O)c2ccc(Cl)cc2)c1O | active: 15.8 µM
CCOC(=O)C1=C(C)NC2=C(C(=O)OC2)C1c1ccccc1 (stereo unspecified) | inconclusive: 28.2 µM [inhibitor, partial curve]
COc1ccc(Cn2c3nc4ccccc4nc3c3c(=O)n(Cc4ccco4)cnc32)cc1 | inconclusive: 25.1 µM [inhibitor, partial curve]
O=c1cc(COc2ncnc3ccccc23)nc2sccn12 | inconclusive: 25.1 µM [inhibitor, single point]
CC(C)c1ccc2c(c1)c(SC(C)(C)C)c(CC(C)(C)C(=O)O)n2Cc1ccc(Cl)cc1 | inconclusive: 39.8 µM [inhibitor, single point]
COc1ccc(CCC(=O)N2CC(C)OC(C)C2)cc1 (stereo unspecified) | inconclusive: 39.8 µM [inhibitor, single point]

Structure (SMILES) | Potency
Cc1nn(-c2ccccc2)c(Cl)c1/C=N/NC(=O)c1ccccc1NS(=O)(=O)c1cccs1 | inconclusive: 28.2 µM [inhibitor, partial curve]
CCCOC(=O)c1ccc(NC(=O)c2c(Cl)ccc(Cl)c2OC)cc1 | inactive
CCOC(=O)C1CCCN(c2ncnc3c2[nH]c2cccc(OC)c23)C1 (stereo unspecified) | inconclusive: 5.01 µM [inhibitor, full curve]
COc1ccc(C(=O)c2sc3nc(-c4ccccc4)ccc3c2N)cc1OC | inactive
Brc1ccc(-c2cn3c(n2)CCc2ccc4cccnc4c2-3)cc1 | inconclusive: 7.08 µM [inhibitor, partial curve]
Cc1c(-c2ccccc2)sc(Br)c1C(=O)N1CCOCC1 | inactive
C[C@@H](CCc1ccccc1)NC[C@H](O)c1ccc(O)c(C(N)=O)c1 | inconclusive: 12.6 µM [inhibitor, partial curve]
COc1ccc(NC(=O)c2ccc(COc3ccc(C)cc3)o2)cc1 | inconclusive: 7.94 µM [inhibitor, partial curve]
CN(C)CCCNC(=S)N(Cc1cccs1)Cc1cc2cc3c(cc2[nH]c1=O)OCCO3 | inconclusive: 31.6 µM [inhibitor, partial curve]
COc1ccc(OC)c(C2C3=C(COC3=O)Nc3cc4c(cc32)OCO4)c1 (stereo unspecified) | inconclusive: 35.5 µM [inhibitor, partial curve]
Clc1ccc(/C=N/c2c(-c3ccc(Cl)cc3)nc3n2CCS3)cc1 | inactive
CC1CCCCN1C(=O)CSc1nc2ccsc2c(=O)n1Cc1ccccn1 (stereo unspecified) | inactive
CCOc1ccccc1CN1CCN(Cc2nc3c(s2)CCCC3)CC1CCO (stereo unspecified) | inconclusive: 6.31 µM [inhibitor, single point]
COc1c2ccccc2c(OC)c2ccccc12 | inconclusive: 3.16 µM [inhibitor, partial curve]
CCC(=O)NC(=S)Nc1ccc(NC(=O)c2cc3ccccc3o2)c(OC)c1 | inconclusive: 14.1 µM [inhibitor, partial curve]
CN1CCCCC1CCN1c2ccccc2Sc2ccc(S(C)=O)cc21 (stereo unspecified) | inconclusive: 39.8 µM [inhibitor, single point]
O=C(/C=C/c1cccs1)Nc1cccnc1 | inconclusive: 39.8 µM [inhibitor, single point]
CCn1c(O)c(C#N)c(C)cc1=O | inconclusive: 31.6 µM [inhibitor, single point]
CCOc1cc(/C=N/NC(=O)C(=O)Nc2cc(Cl)ccc2C)ccc1O | inconclusive: 39.8 µM [inhibitor, single point]
COC(=O)C(Cc1ccccc1)NC(=O)C(N)CC(=O)O (stereo unspecified) | inactive
COc1ccc(-c2nc3ccccc3c(=O)n2CCOc2ccccc2C)cc1 | inconclusive: 35.5 µM [inhibitor, single point]
CCOP(=O)(OCC)c1nc(-c2ccc(Cl)cc2Cl)oc1N1CCCCC1 | inconclusive: 35.5 µM [inhibitor, single point]
O=C(Nc1cnccn1)Nc1cccc(Cl)c1Cl | inconclusive: 8.91 µM [inhibitor, full curve]
CCOC(=O)c1nc2sc3c(c2c(=O)[nH]1)CCC(C)C3 (stereo unspecified) | inconclusive: 7.94 µM [inhibitor, partial curve]

Structure (SMILES) | Potency
Cc1cccc(C)c1NC(=O)CN(c1ccccn1)S(=O)(=O)c1ccccc1 | inconclusive: 31.6 µM [inhibitor, partial curve]
CN(C)c1ccc(/C=c2/sc3n(c2=O)NC2(c4ccccc4)N(C)C(=O)N(C)C2(c2ccccc2)N=3)cc1 (stereo unspecified) | inactive
COc1cc2c(cc1NC(=O)c1ccc3c(c1)OCO3)oc1ccccc12 | inconclusive: 28.2 µM [inhibitor, partial curve]
Cc1ccc(C(=O)NC(=S)NCC2CCCO2)cc1Br (stereo unspecified) | inactive
COC(=O)c1c(NC(=O)COc2ncnc3ccccc23)sc(C)c1C | inconclusive: 39.8 µM [inhibitor, single point]
COc1ccc(CCNC(=O)c2c(O)c3cccc4c3n(c2=O)CC4)cc1 | inconclusive: 8.91 µM [inhibitor, single point]
Cc1ccc(S(=O)(=O)c2cc3c(=O)n4cccc(C)c4nc3n(Cc3ccco3)c2=N)cc1C | inconclusive: 25.1 µM [inhibitor, partial curve]
O=C1CSC(c2ccc([N+](=O)[O-])cc2)N1CCN1CCCCC1 (stereo unspecified) | inactive
CC(CCc1ccccc1)NC(=O)C(=O)NCCO (stereo unspecified) | inconclusive: 39.8 µM [inhibitor, single point]
COc1ccc(CCNC(=O)NC2CCCCC2)cc1OC | inactive
CCOC(=O)N1CCN(C(=O)c2cccn3c(=O)c4sccc4nc23)CC1 | inconclusive: 28.2 µM [inhibitor, partial curve]
O=C(CSc1nnnn1-c1cccc2c1CCCC2)N1CCCC1 | inactive
Cc1cccc2cc(CN(Cc3cccnc3)C(=O)c3ccncc3)c(=O)[nH]c12 | inconclusive: 25.1 µM [inhibitor, single point]
Cc1ccc[n+](CC(=O)c2cc3ccccc3oc2=O)c1 | inconclusive: 35.5 µM [inhibitor, single point]
CN1CCc2c(sc3c2c(=O)n(-c2ccccc2)c2nncn32)C1 | inconclusive: 25.1 µM [inhibitor, single point]
O=C(Oc1cc2oc(=O)cc(-c3ccccc3)c2cc1Cl)C1CCCCC1 | inconclusive: 25.1 µM [inhibitor, single point]
C/C(=C\C=C(C#N)C#N)c1cc(C#N)c(N)o1 | inconclusive: 39.8 µM [inhibitor, single point]
COc1ccc(Cn2cccc(NC(=O)Nc3ccc(F)cc3)c2=O)cc1 | inconclusive: 20 µM [inhibitor, partial curve]
CC(=O)OC1C[C@]2(C)C(C(C)=O)CCC2C2CCC3=CC(=O)CC[C@@]3(C)C12 (stereo partly specified) | inactive
Cc1ccccc1NC(=S)Nc1ccc2cn[nH]c2c1 | inconclusive: 12.6 µM [inhibitor, partial curve]
CCN1/C(=C/C=C/C=C/c2sc3ccccc3[n+]2CC)Sc2ccccc21 | active: 22.4 µM
O=C(Oc1ccc2c3c(c(=O)oc2c1)CCCC3)c1cccs1 | inconclusive: 35.5 µM [inhibitor, partial curve]
Cc1ccc(CSc2nnc(-c3ccncc3)n2CC2CCCO2)cc1 (stereo unspecified) | inactive
